This sample is rich in variants without activity.
B1: TPR 5TU (parent)
chain: GGAUCUUCUCGAUCUAACAAAAAAGACAAAUCUGCCACAAAGCUUGAGAGCAUCUUCGGAUGCAGAGGCGGCAGCCUUCGGUGGCGCGAUAGCGCCAACGUUCUCAACUAUGACACGCAAAACGCGUGCUCCGUUGAAUGGAGUUUAUCAUG

Variants of: B1
Assay: polymerase ribozyme fitness, log enrichment relative to wild type (log ratio); higher = more active; in vitro selection for triplet polymerase activity
How it was run: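 The heterodimeric triplet polymerase ribozyme's subunits were each mutagenized into PCR-built libraries and transcribed. Every library was selected once, in triplicate, by annealing with a biotinylated primer, the partner subunit and triplets, incubating frozen at −7 °C, gel-excising extended constructs, capturing on streptavidin beads and running RT-PCR. Input and output libraries were Illumina-sequenced, with genotypes kept only at ≥10 input reads and ≥1 read per output. Fitness, from inverse-variance-weighted replicate averages, is the base-2 logarithm of genotype enrichment over wild-type enrichment.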

GGAUCUUCUCGAUCUAACAAAAAAGACAAAUCUGCCACAAAGCUUGAGAGCAUCUUCGGAUGCAGAGGCGGCAGCCUUCGGUGGCGCGAUAGCGCCAACGUUCGCAAAUAUGACACGCAAAACGCGUGCUCCGUUGAAUGGAGUUUACCAUG [U104G C108A U148C] and GGAUCUUCUCGAUCUAACAAAAAAGACAAAUCUGCCACAAAGCUUGAGAGCAUCUUCGGAUGCAGAGGCGGCAGCCUUCGGUGGCGCGAUAGCGCCAACGUUCUUAACUAUGACACGCAAAACGCGUGCUCAGUUGAAUGGAGUUUAGCAUG [C105U C132A U148G] cannot be ordered by “polymerase ribozyme fitness (log ratio)” value: at most -4.2 for the first, at most -4.2 for the second.

GGAUCUUCUCGAUCUAACAAAAAAGACAAAUCUGCCACAAAGCUUGAGAGCAUCUUCGGAUGCAGAGGCGGCAGCCUUCGGUGGCGCGAUAGCGCCAACGUUCUAAACUAUGACACGCAAAACGCGUGCUCCGUUGAAUGGAGUUUAUGAUG [C105A C149G] and GGAUCUUCUCGAUCUAACAAAAAAGACAAAUCUGCCACAAAGCUUGAGAGCAUCUUCGGAUGCAGAGGCGGCAGCCUUCGGUGGCGCGAUAGCGCCAACGUUCUAAACUAUGUCACGCAAAACGCGUGCUCCGUUGAAUGGAGUUUAUCAUG [C105A A113U] cannot be ordered by “polymerase ribozyme fitness (log ratio)” value: at most -4.2 for the first, at most -4.2 for the second.

First: GGAUCUUCUCGAUCUAACAAAAAAGACAAAUCUGCCACAAAGCUUGAGAGCAUCUUCGGAUGCAGAGGCGGCAGCCUUCGGUGGCGCGAUAGCGCCAACGUUCUCGACUAUGACACGUAAAACGCGUGCUCCGUUGAAUGGAGUUUAUCAUG [A106G C118U]
Second: GGAUCUUCUCGAUCUAACAAAAAAGACAAAUCUGCCACAAAGCUUGAGAGCAUCUUCGGAUGCAGAGGCGGCAGCCUUCGGUGGCGCGAUAGCGCCAACGUUCUAAACUAUGACACGCAAAACGCGUGGUCCGUUGAAUGGAGUUUAUCAUG [C105A C129G]
The “polymerase ribozyme fitness (log ratio)” value of the first is higher: 0.261 for the first, at most -4.2 for the second.

Compared with GGAUCUUCUCGAUCUAACAAAAAAGACAAAUCUGCCACAAAGCUUGAGAGCAUCUUCGGAUGCAGAGGCGGCAGCCUUCGGUGGCGCGAUAGCGCCAACGUUCUUAACCAUGACACGCAAAACGCGUGCUCCGUUGAGUGGAGUUUAUCAUG [C105U U109C A138G], GGAUCUUCUCGAUCUAACAAAAAAGACAAAUCUGCCACAAAGCUUGAGAGCAUCUUCGGAUGCAGAGGCGGCAGCCUUCGGUGGCGCGAUAGCGCCAACGUUCUUAACUAUGACACGCAAAACGCGUGCUCCGUUGAAUGGAGUUUAUCAUG [C105U] is higher in “polymerase ribozyme fitness (log ratio)” value: at most -4.2 for the first, 0.527 for the second.

First: GGAUCUUCUCGAUCUAACAAAAAAGACAAAUCUGCCACAAAGCUUGAGAGCAUCUUCGGAUGCAGAGGCGGCAGCCUUCGGUGGCGCGAUAGCGCCAACGUUCUAAACUAUGACACGCAAAACGCGUGCUCCGUUGAAUGGAGUUUAUCAUG [C105A]
Second: GGAUCUUCUCGAUCUAACAAAAAAGACAAAUCUGCCACAAAGCUUGAGAGCAUCUUCGGAUGCAGAGGCGGCAGCCUUCGGUGGCGCGAUAGCGCCAACGUUCUGAACUAUGACACGCAAAACGCGUGCUCCGUUGAAUGGAGUUUAUCAUG [C105G]
The “polymerase ribozyme fitness (log ratio)” value of the first is higher: -0.411 for the first, -0.829 for the second.

First: GGAUCUUCUCGAUCUAACAAAAAAGACAAAUCUGCCACAAAGCUUGAGAGCAUCUUCGGAUGCAGAGGCGGCAGCCUUCGGUGGCGCGAUAGCGCCAACGUUCACAACUAUGACACGCAAAACGCGUGCUCCGUUGAAUAGCGUUUAUCAUG [U104A G140A A142C]
Second: GGAUCUUCUCGAUCUAACAAAAAAGACAAAUCUGCCACAAAGCUUGAGAGCAUCUUCGGAUGCAGAGGCGGCAGCCUUCGGUGGCGCGAUAGCGCCAACGUUCUCGACUAUGACACACAAAACGCGUGCUCCGUUGAAUGGAGUUUAUCAUG [A106G G117A]
The “polymerase ribozyme fitness (log ratio)” value of the first is lower: at most -4.2 for the first, 0.816 for the second.

First: GGAUCUUCUCGAUCUAACAAAAAAGACAAAUCUGCCACAAAGCUUGAGAGCAUCUUCGGAUGCAGAGGCGGCAGCCUUCGGUGGCGCGAUAGCGCCAACGUUUUCAACUAUGACACGCAAAACGCGUGCUCCGAUGAAUGGAGUUUAUCAUG [C103U U134A]
Second: GGAUCUUCUCGAUCUAACAAAAAAGACAAAUCUGCCACAAAGCUUGAGAGCAUCUUCGGAUGCAGAGGCGGCAGCCUUCGGUGGCGCGAUAGCGCCAACGUUCGCAACUAUGACACGCAAAACGCCUGCUCCGUUGAAUGGAGUUUAUCAUG [U104G G126C]
The “polymerase ribozyme fitness (log ratio)” value of the first is lower: -2.39 for the first, 0.0565 for the second.

Compared with GGAUCUUCUCGAUCUAACAAAAAAGACAAAUCUGCCACAAAGCUUGAGAGCAUCUUCGGAUGCAGAGGCGGCAGCCUUCGGUGGCGCGAUAGCGCCAACGUUCCCAACUAUGACACGCAAAACUAGUGCUCCGUUGAAUGGAUUUUAUCAUG [U104C G124U C125A G143U], GGAUCUUCUCGAUCUAACAAAAAAGACAAAUCUGCCACAAAGCUUGAGAGCAUCUUCGGAUGCAGAGGCGGCAGCCUUCGGUGGCGCGAUAGCGCCAACGUUCUCGACUAUGACAUGCAAAACGCGUGCUCCGUUGAAUGGAGUUUACCAUG [A106G C116U U148C] is higher in “polymerase ribozyme fitness (log ratio)” value: -3.85 for the first, -1.25 for the second.

Going from GGAUCUUCUCGAUCUAACAAAAAAGACAAAUCUGCCACAAAGCUUGAGAGCAUCUUCGGAUGCAGAGGCGGCAGCCUUCGGUGGCGCGAUAGCGCCAACGUUCCCAACUAUGACAGGCAAAACGCGUGCUCCGUUGAAUGGAGUUUAUCAUG [U104C C116G] to GGAUCUUCUCGAUCUAACAAAAAAGACAAAUCUGCCACAAAGCUUGAGAGCAUCUUCGGAUGCAGAGGCGGCAGCCUUCGGUGGCGCGAUAGCGCCAACGUUCCGAACUAUGACACGCAAAACGCGUGCUCCGUUGAAUGGAGUUUAUCAUG [U104C C105G], the “polymerase ribozyme fitness (log ratio)” value falls from 0.144 to at most -4.2.

For GGAUCUUCUCGAUCUAACAAAAAAGACAAAUCUGCCACAAAGCUUGAGAGCAUCUUCGGAUGCAGAGGCGGCAGCCUUCGGUGGCGCGAUAGCGCCAACGUUCUGAGCUAUGACACGCAAAACGCGUGCUGCGUUGAAUGGAGUUUAUCAUG [C105G A107G C131G], the “polymerase ribozyme fitness (log ratio)” value was at most -4.2.
